According to PubChem BioAssay AID624296 (National Center for Advancing Translational Sciences (NCATS), 2012):
Hit rate of the full screen: of about 350,000 compounds, about 9,900 (2.8%) were called active. This list was built around the results that the source calls inconclusive (neither active nor inactive); the mix of calls is not that of the screen. Calls come from the whole dose curve; as a rule, active = well fitted activation curve with a large enough effect; inconclusive = small, poorly fitted or top-dose-only effect; inactive = no such curve, though single readings can be large or run the other way. No potency is given beside an inconclusive call; the fits are too rough.

assay: A quantitative high throughput screen for small molecules that induce DNA re-replication in MCF 10a normal breast cells.; note: nearly all actives have a fitted effect of over 50% in size; settings: MCF 10A DNA re-replication, Hoechst nuclear intensity, 48 h; series mostly up to 46.1 µM
Potency is the fitted concentration of half-maximal effect; tags give direction and shape of the fitted curve.

| Compound | Potency |
| --- | --- |
| Cc1ccc(S(=O)(=O)Nc2ccc(NC(=O)c3ccc(F)cc3)cc2)cc1 | inactive |
| COc1cccc(/C=N/NC(=O)c2c(-c3ccccc3)noc2C)c1O | inconclusive [activator, single point] |
| O=C(/C=C/c1ccco1)NC(=S)Nc1cc(-c2nc3ccccc3s2)ccc1Cl | inconclusive [activator, single point] |
| COc1ccccc1CNC(=O)COC(=O)/C=C/c1ccc2ccccc2n1 | inconclusive [activator, single point] |
| Cn1c(/C=C/c2ccccc2)nc2ccccc2c1=O | inconclusive [activator, single point] |
| CC(C)c1nn2c(=O)cc(CSc3ccccc3NC(=O)c3ccccc3F)nc2s1 | inactive |
| Cc1noc(C)c1S(=O)(=O)N(CC(=O)N1CCc2ccccc21)c1ccc(C(C)C)cc1 | inactive |
| Cc1ccc(SCCNS(=O)(=O)c2ccc3c(c2)OCCO3)cc1 | inconclusive [activator, single point] |
| COc1ccc(S(=O)(=O)Nc2cc3c(cc2C(C)=O)OCO3)cc1 | active: 18.4 µM |
| COc1ccccc1N1CCN(Cc2ccc(O)c3ncccc23)CC1 | inconclusive [activator, single point] |
| O=C(NCCN1C(=O)S/C(=C\c2ccccc2F)C1=O)C1=COCCO1 | active: 2.59 µM |
| COc1ccc(C2c3[nH]c4ccccc4c3C[C@H]3C(=O)N(c4ccccc4C(=O)N4CCC(C(=O)O)CC4)C(=O)N23)cc1 (some centres undefined) | inconclusive [activator, full curve, poor fit] |
| CC(C)(C)CC(C)(C)N=C1Nc2cc(Cl)c(Cl)cc2NC12C[C@H]1CCC(=O)N3CC[C@@H](C2)[C@@H]13 (some centres undefined) | inconclusive [activator, single point] |
| CN(C)C(=O)c1coc2nc3ccccc3nc12 | inconclusive [activator, single point] |
| CC1CC(C)(C)CC2(C1)NC(=O)N(CC(=O)N1CCN(S(=O)(=O)c3ccc(F)c(F)c3F)CC1)C2=O (centres undefined) | inactive |
| Cc1ccc(NS(=O)(=O)c2cccc(C(=O)NCCCN3CCCC3=O)c2)cc1 | inactive |
| Oc1ccc(Br)cc1/C=N/N1CCN(Cc2ccccc2)CC1 | inconclusive [activator, single point] |
| O=C(O)CN1C(=O)/C(=C\c2cc(Br)ccc2OCc2ccc(F)cc2)SC1=S | inconclusive [activator, single point] |
| CCCCN(Cc1ccco1)S(=O)(=O)c1ccc(-c2ccc(=O)[nH]n2)s1 | inconclusive [activator, single point] |
| O=C1c2ccccc2C(Nc2ccc(S(=O)(=O)N3CCCCC3)cc2)N1Cc1ccco1 (centres undefined) | inactive |
| Oc1ccc(Nc2nc(-c3cccnc3)cs2)cc1 | inconclusive [activator, full curve] |
| CCOC(=O)c1cc(C)n(Cc2cccc(OC)c2OC)c1C | inconclusive [activator, single point] |
| c1ccc(CN2CCN(C(c3ccccc3)c3ccccc3)CC2)cc1 | active: 20.6 µM |

| Compound | Potency |
| --- | --- |
| O=C(CSc1nc2ccccc2c(=O)n1CCCO)Nc1ccc2c(c1)OCCO2 | inconclusive [activator, partial curve, poor fit] |
| O=C(c1cccc2ccccc12)N1CCN(CC2CC=CCC2)CC1 (centres undefined) | inconclusive [activator, single point] |
| CCOC(=O)c1c(NC(=O)c2ccn(CC)n2)sc2c1CCCC2 | inconclusive [activator, single point] |
| COC(=O)[C@H](CC(C)C)N(Cc1ccccc1)S(=O)(=O)N(Cc1ccc(OC)cc1)[C@@H](CC(C)C)C(=O)OC | inactive |
| O=C(CSc1ccccc1)NCc1ccccc1 | inconclusive [activator, partial curve, poor fit] |
| Cc1ccc(NC(=O)Cc2ccccc2Cl)cc1S(=O)(=O)N(C)C | inconclusive [activator, single point] |
| Cc1cc2n(n1)C(c1c[nH]c3ccccc13)Nc1ccccc1-2 (centres undefined) | inconclusive [activator, single point] |
| O=C(Nc1nc2ccc([N+](=O)[O-])cc2s1)c1ccc(S(=O)(=O)N2CCCc3ccccc32)cc1 | active: 2.59 µM |
| COc1ccc2cc(/C=N/O)c(Cl)nc2c1 | inactive |
| Cc1ccc(OCc2nnc(SCC(=O)c3ccccc3)n2Cc2ccco2)cc1 | inconclusive [activator, single point] |
| CCOC(=O)c1ccc(NC(=O)N2CCCCC2)cc1 | inconclusive [activator, partial curve, poor fit] |
| CN(NC(=O)Nc1ccccc1)c1cnn(C)c(=O)c1Cl | active: 2.31 µM |
| O=C(CCNC(=O)c1ccccc1Cl)Nc1nc(-c2ccc(F)cc2)cs1 | inactive |
| Cc1ccc(NC(=O)CCN2C(=O)NC3(CCCC3)C2=O)cc1 | inactive |
| O=C(N/N=C/c1ccc(O)c2ncccc12)c1cccc(Br)c1 | active: 18.4 µM |
| O=C(CN1C(=O)C2C3C=CC(C3)C2C1=O)OCC(=O)c1ccc(Br)cc1 (centres undefined) | inconclusive [activator, full curve, poor fit] |
| Cc1nnc2ccc(-c3cccc(NC(=O)c4ccco4)c3)nn12 | inconclusive [activator, partial curve, poor fit] |
| CCOC(=O)C1CCN(C(=O)CSc2cc(=O)n(CC)c3ccccc23)CC1 | inconclusive [activator, full curve, poor fit] |
| COC(=O)c1c(NC(=O)c2ccccc2)sc(Cc2ccccc2)c1C | inconclusive [activator, partial curve, poor fit] |
| C(=N\Nc1nncc2ccccc12)/c1ccccn1 | inconclusive [activator, full curve, poor fit] |
| COc1cccc(/C=C2\SC(=O)N(CC(=O)NCCCn3ccnc3)C2=O)c1 | inconclusive [activator, full curve, poor fit] |
| O=C(c1cn(-c2ccccc2)nc1-c1cccnc1)N1CCN(S(=O)(=O)c2ccccc2F)CC1 | inactive |
| CC(OC(=O)c1cccnc1Cl)C(=O)Nc1ccc2c(c1)OCO2 (centres undefined) | inactive |

| Compound | Potency |
| --- | --- |
| c1cc(-c2nnc3sc(C4CCCCC4)nn23)ccn1 | inactive |
| COc1ccc(-c2noc(CCC(=O)NCCCN3CCC(Cc4ccccc4)CC3)n2)cc1 | inconclusive [activator, single point] |
| Cc1csc(SC(C)C(=O)Nc2ccc(Cl)cn2)n1 (centres undefined) | inconclusive [activator, single point] |
| COc1ccccc1CNC(=O)c1cc(C(C)=O)c[nH]1 | inactive |
| Cc1ccn2cc(C(=O)Nc3ccc4c(c3)OCCO4)nc2c1 | inactive |
| Cc1cc(C)nc(NC(=O)c2cc(-c3ccc(C)s3)nc3ccccc23)c1 | inconclusive [activator, single point] |
| N#Cc1ccccc1NC(=O)CSc1nnc(-c2ccccc2O)n1-c1ccccc1 | inactive |
| Cc1ccc(-c2nc3cccnc3s2)cc1NS(=O)(=O)c1cccs1 | active: 16.4 µM |
| CS(=O)(=O)Nc1ccc(C(=O)Nc2ccccc2-c2ccccc2)cc1 | inconclusive [activator, single point] |
| O=S(=O)(c1cnc(Cl)c(Br)c1)N1CCc2ccccc21 | inconclusive [activator, single point] |
| COc1cc2ccccc2cc1C(=O)NCC(c1cccs1)N(C)C (centres undefined) | inconclusive [activator, single point] |
| CCCCn1c(SCc2ncc(-c3ccccc3)o2)nc2cc(S(N)(=O)=O)ccc21 | inconclusive [activator, single point] |
| Cc1c(C(=O)N2CCN(c3ccc(F)cc3)CC2)sc2ncnc(N3CCN(c4ccccn4)CC3)c12 | inconclusive [activator, partial curve] |
| Oc1ccc(Nc2ccc3ccccc3c2)cc1 | inconclusive [activator, single point] |
| NS(=O)(=O)c1ccc(NC(=O)CSc2nc(Nc3ccccc3)nc(N3CCOCC3)n2)cc1 | inconclusive [activator, single point] |
| c1cnc2c(c1)ccc1cccnc12 | inconclusive [activator, partial curve] |
| Cc1ccc(/C=N/n2c(-c3ccccc3)n[nH]c2=S)cc1 | inconclusive [activator, single point] |
| CC[n+]1ccccc1/C=C/c1ccc(N(C)C)cc1 | inconclusive [activator, single point] |
| CCO[C@@H]1OC(C(=O)N2CCCCCCC2)=C[C@H](C2CCCCC2)[C@H]1CCCO | inconclusive [activator, partial curve, poor fit] |
| CCn1c(=N)n(CC(=O)c2ccc(OC)c(OC)c2)c2ccccc21 | inactive |
| N#CN1CCC(NS(=O)(=O)c2ccc(C(F)(F)F)cc2)C1 (centres undefined) | inconclusive [activator, single point] |
| CC(C)N(C(=O)[C@H]1CC(CC(=O)NCC23CC4CC(CC(C4)C2)C3)C(=O)N2CCc3c([nH]c4ccccc34)[C@]12C)C(C)C (some centres undefined) | inactive |
| C=CCn1c(N)cc(=O)nc1SCC(=O)Nc1ccc(C(=O)OC)cc1 | inconclusive [activator, single point] |
